These results are taken from ChEMBL document CHEMBL4888484, “Replenishing the malaria drug discovery pipeline: Screening and hit evaluation of the MMV Hit Generation Library 1 (HGL1) against asexual blood stage Plasmodium falciparum ,using a nano luciferase reporter read-out” (2022).

In all, about 150,000 compounds went through this assay and about 540 (0.36%) showed an effect of 50% or more. The list shows a part of the results.

The experiment relates to Plasmodium falciparum. Description: Primary screen in NF54 nanoGlo assay, in single point, at 2uM, 72h; a lower Z score goes with more inhibition. The format is functional, Erythrocyte. Conditions: timepoint 72 hour.
Consider `Cc1cccc(CN2CCN3CCN(S(=O)(=O)c4ccccc4)CC[C@H]3C2=O)c1`, for which the % Inhibition (commonly the change of the read-out against control, counted positive when it falls) is -21% and the Z score stood at 2.8.
Consider `O=C(CN1CCN(Cn2cnc3ccccc32)CC1)Nc1ccccc1C(F)(F)F`, for which the “% Inhibition” value is recorded as -4% and the Z score is 0.78.
`Cc1cccc(C)c1NC(=O)N1CCCC2CC21` (stereo unspecified): the “% Inhibition” value was -7% and the Z score is given as 0.93.
The matching figures for `Nc1ccc(C(=O)Oc2ccccc2-c2ccccc2OC(=O)c2ccc(N)cc2)cc1`: -8% and 1.18.
In the case of `COc1ccc(N2CCN(C(=O)c3ccc4c(c3)CCN4S(=O)(=O)c3ccccc3)CC2)cc1`, the “% Inhibition” value is given as -8% and the Z score stood at 1.47.
The matching figures for `COc1ccc([C@H]2CN(C(=O)CN(C)Cc3ccc(F)cc3)C[C@@H]2N)cc1`: 1% and -0.15.
`O=C(OC1CCCCCCC1)c1cccc(-n2cnnn2)c1`: the “% Inhibition” value is on record as -4% and the Z score came out at 0.51.
Turning to `O=C(CCc1cccs1)N1CCN(Cc2ccc3c(c2)OCO3)CC1`, the “% Inhibition” value was -11% and the Z score turned out to be 1.37.
On to `CC(C)[C@H]1C(=O)N(C)CCN1S(=O)(=O)N1CCCC1`, for which the “% Inhibition” value stood at 1% and the Z score is on record as -0.3.
In the same order, the values of `CC[C@H](C)NC(=O)c1c(C)c(N2CCOCC2)c(C)n1Cc1cccc(C)c1` are 4% and -0.65.
`CCn1ccnc1CN1CCn2c(Cl)ccc2[C@@H]1C`: the “% Inhibition” value is -1% and the Z score came to 0.06.
On to `CC(C)C[C@@H]1NC(=O)[C@H]2Cc3ccccc3CN2C1=O`, for which the “% Inhibition” value is recorded as 0% and the Z score is 0.06.
With `COCCCn1c(C)cc(C(=O)N2CCC[C@H](c3[nH]ccc3C(N)=O)C2)c1C`, the “% Inhibition” value amounted to 6% and the Z score is -0.69.
Consider `O=S(=O)(c1ccc(Oc2ccc(F)c(Cl)c2)nc1)N1CCOCC1`, for which the “% Inhibition” value was -13% and the Z score worked out at 1.99.
As to `CN(C)C(=O)CN1CC[C@]2(CCCO2)CCC1=O`, the “% Inhibition” value was determined as 2% and the Z score is on record as -0.25.
In the same order, the values of `Cc1cc(C)nc(-c2ccc(C(=O)N3CC[C@H]4CC[C@@H](C3)N4C)cc2)n1` are -5% and 0.95.
`Cc1c(CNC(=O)CNC(=O)N(C)C)cnn1C`: the “% Inhibition” value was -18% and the Z score came out at 2.36.
For `c1nc2c(c(N3CCC4(CCCC4)C3)n1)CCN([C@H]1CCCNC1)CC2`, the “% Inhibition” value was determined as 0% and the Z score is recorded as -0.02.
`Cc1nc2c(s1)CCC[C@@H]2NCc1nnc(-c2ccc(C)n2C)o1`: the “% Inhibition” value was -4% and the Z score turned out to be 0.57.
In the same order, the values of `C[C@H](NC(=O)CCCn1cnnn1)C(C)(C)O` are -5% and 1.03.
On to `CN(CCO)C(=O)NCc1ccc(Br)o1`, for which the “% Inhibition” value is reported as -17% and the Z score stood at 1.92.
On to `CC(C)c1cc(N[C@H]2CC[C@H](n3cnnc3)CC2)nc(C(F)(F)F)n1`, for which the “% Inhibition” value is reported as 7% and the Z score is -1.16.
As to `OC[C@H](Nc1ncncc1Br)c1ccccc1F`, the “% Inhibition” value was determined as 35% and the Z score was -4.75.
Consider `Cc1nc(-c2ncc(C(=O)NC[C@H]3CCCO3)c(O)n2)cs1`, for which the “% Inhibition” value is -19% and the Z score turned out to be 1.81.
In the same order, the values of `Cc1nn(-c2ccc(Br)cc2)c(NC(=O)N(C)[C@@H](C)c2ccccc2F)c1C` are 2% and -0.23.
Consider `CC(C)OC1CCC(N[C@@H](C)c2ccc(Cl)s2)CC1` (stereo partly specified), for which the “% Inhibition” value amounted to 1% and the Z score was -0.08.
In the case of `CCC[C@H](C)C(=O)Nc1ccc(F)c(Cl)c1`, the “% Inhibition” value is -12% and the Z score stood at 2.34.
As to `CCn1ncc(NC(=O)Cn2ccc(-c3nccnc3C)n2)n1`, the “% Inhibition” value is on record as 10% and the Z score is listed as -1.4.
`CCOC(=O)c1c(S(=O)(=O)N2CCC[C@H](C(=O)Nc3ccc4c(c3)OCCO4)C2)c(C)n(CC)c1C`: the “% Inhibition” value is -6% and the Z score is reported as 0.54.
For the compound `C[C@@H]1CN(C(=O)C2CC23CCN(C/C=C/c2ccc(N(C)C)cc2)CC3)C[C@H](C)O1` (stereo partly specified), the “% Inhibition” value is -11% and the Z score is on record as 1.48.
The matching figures for `CCN1CC2(CCN(Cc3nnc(C)o3)CC2)C[C@@H](c2ccccc2)C1=O`: -11% and 1.57.
Consider `CC(C)c1ncc(C(=O)N2CCC[C@H](C#N)C2)c(=O)[nH]1`, for which the “% Inhibition” value is reported as -19% and the Z score was 2.21.
Consider `c1ccc([C@@H]2NCC3(CCCC3)c3ccccc32)cc1`, for which the “% Inhibition” value stood at 4% and the Z score is on record as -0.53.
The matching figures for `CN(CC1(CO)CCC1)C(=O)c1ccc(-c2ccccn2)cc1`: 28% and -3.07.
For `CC1(C)CCc2nc(CN(CCO)C3CCCC3)sc2C1`, the “% Inhibition” value is -18% and the Z score came to 1.58.
As for `Cc1cc(N2CC[C@H](CN3CCOCC3)C2)nc(C)n1`, the “% Inhibition” value is reported as 4% and the Z score is listed as -0.72.
Regarding `Cc1nc2ccc(NC(=O)N3CCCC[C@@H]3Cc3nn[nH]n3)cn2n1`, the “% Inhibition” value is recorded as -6% and the Z score came out at 1.18.
As to `CS(=O)(=O)Cc1nc(Cc2ccccc2)cs1`, the “% Inhibition” value is 0% and the Z score was determined as 0.
Take `Cn1nccc1C(=O)N(CC1CCN(C2Cc3ccccc3C2)CC1)C[C@H]1CCCO1`: the “% Inhibition” value is on record as 4% and the Z score is recorded as -0.57.
With `CCn1c(C(=O)NCCN(C)C2CCCCC2)cc2cc(S(=O)(=O)N(C)C)ccc21`, the “% Inhibition” value is given as -13% and the Z score was found to be 1.8.
In the same order, the values of `OC[C@H]1CCN(Cc2cc3c(cc2Cl)OCO3)C[C@@H]1O` are -6% and 0.55.
As to `CC1(C)[C@@H]2CC[C@@]1(C(=O)NCc1ccc(F)cc1)C(=O)C2`, the “% Inhibition” value is given as -1% and the Z score turned out to be 0.18.
Consider `O=C(N[C@H]1CC(=O)c2ccccc21)c1cnc(CC2CC2)s1`, for which the “% Inhibition” value is listed as 11% and the Z score was -1.36.
Regarding `O=C(O)c1cc(-c2ccc(C(=O)N3CCN4CCC[C@H]4C3)cc2)ccc1O`, the “% Inhibition” value is on record as -10% and the Z score came to 1.5.
`CCC(=O)Nc1ccc(F)c(NC(=O)NC2(C(N)=O)CCCCCC2)c1`: the “% Inhibition” value is -4% and the Z score amounted to 0.56.
Turning to `Cc1cc(CNc2ccc(Br)cc2CO)[nH]n1`, the “% Inhibition” value was -7% and the Z score is 1.33.
Regarding `Fc1ccc2c(c1)CC[C@@H]2NCc1cnc(N2CCOCC2)nc1`, the “% Inhibition” value was -5% and the Z score turned out to be 0.79.
As for `CCCNC(=O)N(CC(=O)N1CCc2sccc2C1COc1ccc(C(C)C)cc1)CC1CCCO1` (stereo unspecified), the “% Inhibition” value is -6% and the Z score turned out to be 1.01.
As to `CC(C)Oc1ccc(CN2CCCN(S(C)(=O)=O)[C@H]3CCC[C@H]3C(=O)NCC2)cc1`, the “% Inhibition” value is recorded as -6% and the Z score was 0.95.
Consider `COc1ccc2c(c1)CC(C)N(C(=O)c1cnns1)C2C` (stereo unspecified), for which the “% Inhibition” value is -8% and the Z score came out at 1.06.
For `Cc1sc2cc(C(=O)N3CCN(c4ccccc4F)CC3)[nH]c2c1CN1CCOCC1`, the “% Inhibition” value is on record as 3% and the Z score is given as -0.31.
Regarding `COc1ccc(-c2cnoc2-c2ccc(OCc3cccc(Cl)c3)cc2O)cc1OC`, the “% Inhibition” value is -7% and the Z score stood at 0.86.
Consider `O=C(Nc1ccnn1C1CCCC1)c1ccc2cc[nH]c2c1`, for which the “% Inhibition” value is recorded as -8% and the Z score turned out to be 0.8.
